The record followed here is paper PMC10150487, “m^6A readers ECT2/ECT3/ECT4 enhance mRNA stability through direct recruitment of the poly(A) binding proteins in Arabidopsis” (Genome Biology, 2023).

Results are given in words; binding and its absence hold for the method and conditions named. For part of these data: Binding seen in cells or lysates may run through a third protein. Some entries that bind do so weakly or less than the wild type. Where a sequence is shown, tags or fusion partners need not be part of it.

For test [1], the target named is T1, ECT2, BiFC fusion used with PAB2 and PAB4 (Arabidopsis thaliana) (UniProt Q9LJE5).
T1 sequence: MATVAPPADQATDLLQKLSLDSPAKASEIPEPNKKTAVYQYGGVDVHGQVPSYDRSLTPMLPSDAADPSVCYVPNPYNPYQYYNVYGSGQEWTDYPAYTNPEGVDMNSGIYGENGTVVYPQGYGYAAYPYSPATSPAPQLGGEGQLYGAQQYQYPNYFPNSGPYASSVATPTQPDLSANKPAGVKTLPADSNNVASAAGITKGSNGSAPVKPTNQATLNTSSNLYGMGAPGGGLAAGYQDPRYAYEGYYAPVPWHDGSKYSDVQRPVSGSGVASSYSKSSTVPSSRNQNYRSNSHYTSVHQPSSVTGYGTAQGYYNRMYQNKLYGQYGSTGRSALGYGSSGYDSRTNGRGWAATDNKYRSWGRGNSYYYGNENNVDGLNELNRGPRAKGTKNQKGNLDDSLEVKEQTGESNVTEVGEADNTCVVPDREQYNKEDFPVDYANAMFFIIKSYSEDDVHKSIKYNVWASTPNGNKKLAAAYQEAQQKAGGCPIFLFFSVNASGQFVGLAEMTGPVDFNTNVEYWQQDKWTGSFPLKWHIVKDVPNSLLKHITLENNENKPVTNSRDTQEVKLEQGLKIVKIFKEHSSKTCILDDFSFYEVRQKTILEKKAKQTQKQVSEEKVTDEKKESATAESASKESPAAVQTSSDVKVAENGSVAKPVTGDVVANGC
Briefly: split reporter; BiFC with split YFP; pairs co-infiltrated with Agrobacterium GV3101 into 4-week-old Nicotiana benthamiana leaves, P19 co-expressed; YFP signal read 48-60 h after infiltration by confocal microscopy.

For test [2], the target named is T2, ECT2, yeast two-hybrid fusion used with PAB2 and PAB4 (Arabidopsis thaliana) (UniProt Q9LJE5).
T2 sequence: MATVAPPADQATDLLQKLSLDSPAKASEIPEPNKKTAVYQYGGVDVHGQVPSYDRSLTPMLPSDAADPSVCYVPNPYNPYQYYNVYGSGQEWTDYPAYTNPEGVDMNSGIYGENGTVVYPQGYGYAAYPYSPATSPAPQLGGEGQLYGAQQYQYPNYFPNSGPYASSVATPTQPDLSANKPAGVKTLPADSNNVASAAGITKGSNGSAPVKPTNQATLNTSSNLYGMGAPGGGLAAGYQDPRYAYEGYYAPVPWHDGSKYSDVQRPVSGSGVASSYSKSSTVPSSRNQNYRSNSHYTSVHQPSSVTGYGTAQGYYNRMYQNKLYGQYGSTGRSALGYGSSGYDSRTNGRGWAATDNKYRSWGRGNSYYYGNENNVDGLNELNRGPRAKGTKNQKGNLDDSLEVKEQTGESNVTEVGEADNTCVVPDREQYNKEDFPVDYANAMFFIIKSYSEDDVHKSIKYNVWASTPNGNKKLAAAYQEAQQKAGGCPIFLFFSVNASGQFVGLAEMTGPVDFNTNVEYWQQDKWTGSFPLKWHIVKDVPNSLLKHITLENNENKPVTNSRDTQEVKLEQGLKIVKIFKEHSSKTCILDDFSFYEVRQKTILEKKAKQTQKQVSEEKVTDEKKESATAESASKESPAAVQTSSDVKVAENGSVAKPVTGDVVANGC
Description: two-hybrid; GAL4 yeast two-hybrid, pGBKT7 (BD) and pGADT7 (AD) fusions co-transformed into AH109 cells; growth on triple or quadruple dropout medium (-Leu/-Trp/-Ade/-His).

Test [3] has as its target T3, ECT2-nYFP (Arabidopsis thaliana) (UniProt Q9LJE5).
T3 sequence: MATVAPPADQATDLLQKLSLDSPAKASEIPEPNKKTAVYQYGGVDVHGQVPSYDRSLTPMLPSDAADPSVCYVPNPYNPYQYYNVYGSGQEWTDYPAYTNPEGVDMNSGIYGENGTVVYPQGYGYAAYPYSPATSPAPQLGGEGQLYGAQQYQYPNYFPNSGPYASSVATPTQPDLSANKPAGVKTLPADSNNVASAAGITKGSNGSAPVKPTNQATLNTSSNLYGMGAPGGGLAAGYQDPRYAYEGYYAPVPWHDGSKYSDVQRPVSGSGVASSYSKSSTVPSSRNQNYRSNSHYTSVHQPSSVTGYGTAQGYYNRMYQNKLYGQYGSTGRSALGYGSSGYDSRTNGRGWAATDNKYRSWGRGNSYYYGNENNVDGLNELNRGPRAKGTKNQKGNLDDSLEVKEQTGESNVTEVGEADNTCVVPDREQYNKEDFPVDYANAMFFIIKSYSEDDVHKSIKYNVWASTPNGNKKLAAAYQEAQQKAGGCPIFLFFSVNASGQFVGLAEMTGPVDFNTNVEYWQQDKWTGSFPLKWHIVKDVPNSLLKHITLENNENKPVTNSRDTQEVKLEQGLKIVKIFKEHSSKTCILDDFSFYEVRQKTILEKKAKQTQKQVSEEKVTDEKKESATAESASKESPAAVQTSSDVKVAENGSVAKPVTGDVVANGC
Description: split reporter; BiFC with split YFP; pairs co-infiltrated with Agrobacterium GV3101 into 4-week-old Nicotiana benthamiana leaves, P19 co-expressed; YFP signal read 48-60 h after infiltration by confocal microscopy.

The target of test [4] is T4, ECT2-BD (Arabidopsis thaliana) (UniProt Q9LJE5).
T4 sequence: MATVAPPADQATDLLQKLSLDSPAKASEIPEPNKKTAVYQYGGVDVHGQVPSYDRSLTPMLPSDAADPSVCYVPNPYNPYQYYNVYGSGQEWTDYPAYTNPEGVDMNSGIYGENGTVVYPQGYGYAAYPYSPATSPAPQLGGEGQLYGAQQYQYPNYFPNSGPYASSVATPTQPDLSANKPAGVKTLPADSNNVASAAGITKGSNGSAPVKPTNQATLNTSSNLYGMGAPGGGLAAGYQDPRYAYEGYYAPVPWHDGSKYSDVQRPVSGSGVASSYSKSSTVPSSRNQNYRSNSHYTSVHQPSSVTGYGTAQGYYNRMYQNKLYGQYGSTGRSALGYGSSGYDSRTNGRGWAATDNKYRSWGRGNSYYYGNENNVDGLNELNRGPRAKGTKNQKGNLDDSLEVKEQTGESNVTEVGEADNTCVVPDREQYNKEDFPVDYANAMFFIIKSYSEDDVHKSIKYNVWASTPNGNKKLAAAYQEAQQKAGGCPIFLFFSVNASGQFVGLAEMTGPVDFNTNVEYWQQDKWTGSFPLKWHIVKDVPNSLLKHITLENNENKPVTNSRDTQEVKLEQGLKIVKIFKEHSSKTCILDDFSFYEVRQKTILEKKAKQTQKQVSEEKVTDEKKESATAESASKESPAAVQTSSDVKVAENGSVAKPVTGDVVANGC
Description: two-hybrid; GAL4 yeast two-hybrid, pGBKT7 (BD) and pGADT7 (AD) fusions co-transformed into AH109 cells; growth on triple or quadruple dropout medium (-Leu/-Trp/-Ade/-His).

B1: PAB4, BiFC fusion (protein, UniProt O22173 1-662)
chain: MAQVQAPSSHSPPPPAVVNDGAATASATPGIGVGGGGDGVTHGALCSLYVGDLDFNVTDSQLYDYFTEVCQVVSVRVCRDAATNTSLGYGYVNYSNTDDAEKAMQKLNYSYLNGKMIRITYSSRDSSARRSGVGNLFVKNLDKSVDNKTLHEAFSGCGTIVSCKVATDHMGQSRGYGFVQFDTEDSAKNAIEKLNGKVLNDKQIFVGPFLRKEERESAADKMKFTNVYVKNLSEATTDDELKTTFGQYGSISSAVVMRDGDGKSRCFGFVNFENPEDAARAVEALNGKKFDDKEWYVGKAQKKSERELELSRRYEQGSSDGGNKFDGLNLYVKNLDDTVTDEKLRELFAEFGTITSCKVMRDPSGTSKGSGFVAFSAASEASRVLNEMNGKMVGGKPLYVALAQRKEERRAKLQAQFSQMRPAFIPGVGPRMPIFTGGAPGLGQQIFYGQGPPPIIPHQPGFGYQPQLVPGMRPAFFGGPMMQPGQQGPRPGGRRSGDGPMRHQHQQPMPYMQPQMMPRGRGYRYPSGGRNMPDGPMPGGMVPVAYDMNVMPYSQPMSAGQLATSLANATPAQQRTLLGESLYPLVDQIESEHAAKVTGMLLEMDQTEVLHLLESPEALNAKVSEALDVLRNVNQPSSQGSEGNKSGSPSDLLASLSINDHL
For the molecule B1, in test [1], the binding result was “binds”.

B2: PAB4, yeast two-hybrid fusion (protein, UniProt O22173 1-662)
chain: MAQVQAPSSHSPPPPAVVNDGAATASATPGIGVGGGGDGVTHGALCSLYVGDLDFNVTDSQLYDYFTEVCQVVSVRVCRDAATNTSLGYGYVNYSNTDDAEKAMQKLNYSYLNGKMIRITYSSRDSSARRSGVGNLFVKNLDKSVDNKTLHEAFSGCGTIVSCKVATDHMGQSRGYGFVQFDTEDSAKNAIEKLNGKVLNDKQIFVGPFLRKEERESAADKMKFTNVYVKNLSEATTDDELKTTFGQYGSISSAVVMRDGDGKSRCFGFVNFENPEDAARAVEALNGKKFDDKEWYVGKAQKKSERELELSRRYEQGSSDGGNKFDGLNLYVKNLDDTVTDEKLRELFAEFGTITSCKVMRDPSGTSKGSGFVAFSAASEASRVLNEMNGKMVGGKPLYVALAQRKEERRAKLQAQFSQMRPAFIPGVGPRMPIFTGGAPGLGQQIFYGQGPPPIIPHQPGFGYQPQLVPGMRPAFFGGPMMQPGQQGPRPGGRRSGDGPMRHQHQQPMPYMQPQMMPRGRGYRYPSGGRNMPDGPMPGGMVPVAYDMNVMPYSQPMSAGQLATSLANATPAQQRTLLGESLYPLVDQIESEHAAKVTGMLLEMDQTEVLHLLESPEALNAKVSEALDVLRNVNQPSSQGSEGNKSGSPSDLLASLSINDHL
On to B2, for which, in test [2], the binding result is reported as “binds”.

B3: ECT3-cYFP (protein, UniProt F4K1Z0 1-495)
chain: MANPDHVSDVLHNLSIDPTTKALAPDSETKLQGAYGGNGNDFLLNDELVEATKIGKPSLLSKDGGVTKDKGSNLKKLGYQSAAYNAKGSYGKGAYAYGYYPPAYQYPRHGYTGSYASGKTNLQYQYLTQQGRSAGNGQSYGGYMDNIYSNYGMCGPYTNGYGYGSYGYDSWKYMPNWYAVNNTYKPRNGYHGYGKENIEGLNEMNRGPRAKGFNSQDGSKVMAVSLKEQRVTETEKLSEDVSLLDPKDYNKIDFPETYTEAKFYVIKSYSEDDIHKSIKYSVWSSTPNGNKKLDASYNEAKQKSDGCPVFLLFSVNTSGQFVGLAEMVGPVDFNKTVEYWQQDKWIGCFPVKWHFVKDIPNSSLRHITLENNENKPVTNSRDTQEVKLEQGIKVIKIFKDHASKTCILDDFEFYENRQKIIQERKSKHLQIKKQTLVANADKGVMSKINLVKPQESTTASEDAAALGVAAEVTKESKVVKETELPVEKNAVATAC
In the case of B3, the binding result in test [3] is “binds”.

B4: ECT3-AD (protein, UniProt F4K1Z0 1-495)
chain: MANPDHVSDVLHNLSIDPTTKALAPDSETKLQGAYGGNGNDFLLNDELVEATKIGKPSLLSKDGGVTKDKGSNLKKLGYQSAAYNAKGSYGKGAYAYGYYPPAYQYPRHGYTGSYASGKTNLQYQYLTQQGRSAGNGQSYGGYMDNIYSNYGMCGPYTNGYGYGSYGYDSWKYMPNWYAVNNTYKPRNGYHGYGKENIEGLNEMNRGPRAKGFNSQDGSKVMAVSLKEQRVTETEKLSEDVSLLDPKDYNKIDFPETYTEAKFYVIKSYSEDDIHKSIKYSVWSSTPNGNKKLDASYNEAKQKSDGCPVFLLFSVNTSGQFVGLAEMVGPVDFNKTVEYWQQDKWIGCFPVKWHFVKDIPNSSLRHITLENNENKPVTNSRDTQEVKLEQGIKVIKIFKDHASKTCILDDFEFYENRQKIIQERKSKHLQIKKQTLVANADKGVMSKINLVKPQESTTASEDAAALGVAAEVTKESKVVKETELPVEKNAVATAC
B4: the binding entry in test [4] is listed as “binds”.

B5: PAB2, BiFC fusion (protein, UniProt P42731 1-629)
chain: MAQVQLQGQTPNGSTAAVTSAPATSGGATATQFGNTSLYVGDLDFNVTDSQLFDAFGQMGTVVTVRVCRDLVTRRSLGYGYVNFTNPQDAARAIQELNYIPLYGKPIRVMYSHRDPSVRRSGAGNIFIKNLDESIDHKALHDTFSSFGNIVSCKVAVDSSGQSKGYGFVQYANEESAQKAIEKLNGMLLNDKQVYVGPFLRRQERDSTANKTKFTNVYVKNLAESTTDDDLKNAFGEYGKITSAVVMKDGEGKSKGFGFVNFENADDAARAVESLNGHKFDDKEWYVGRAQKKSERETELRVRYEQNLKEAADKFQSSNLYVKNLDPSISDEKLKEIFSPFGTVTSSKVMRDPNGTSKGSGFVAFATPEEATEAMSQLSGKMIESKPLYVAIAQRKEDRRVRLQAQFSQVRPVAMQPSVGPRMPVYPPGGPGIGQQMFYGQAPPAMIPPQPGYGYQQQLVPGMRPGGGPVPSFFMPMVQPQQQRPGGGRRPGGIQHSQQQNPMMQQQMHPRGRMFRYPQGRGGSGDVPPYDMGNNMPLTIGALASNLSNATPEQQRTMLGEVLYPLVEQVEAESAAKVTGMLLEMDQTEVLHLLESPEALKAKVAEAMDVLRSVAAGGATEQLASLNLS
Turning to B5, the binding result in test [1] is “binds”.

B6: PAB2, yeast two-hybrid fusion (protein, UniProt P42731 1-629)
chain: MAQVQLQGQTPNGSTAAVTSAPATSGGATATQFGNTSLYVGDLDFNVTDSQLFDAFGQMGTVVTVRVCRDLVTRRSLGYGYVNFTNPQDAARAIQELNYIPLYGKPIRVMYSHRDPSVRRSGAGNIFIKNLDESIDHKALHDTFSSFGNIVSCKVAVDSSGQSKGYGFVQYANEESAQKAIEKLNGMLLNDKQVYVGPFLRRQERDSTANKTKFTNVYVKNLAESTTDDDLKNAFGEYGKITSAVVMKDGEGKSKGFGFVNFENADDAARAVESLNGHKFDDKEWYVGRAQKKSERETELRVRYEQNLKEAADKFQSSNLYVKNLDPSISDEKLKEIFSPFGTVTSSKVMRDPNGTSKGSGFVAFATPEEATEAMSQLSGKMIESKPLYVAIAQRKEDRRVRLQAQFSQVRPVAMQPSVGPRMPVYPPGGPGIGQQMFYGQAPPAMIPPQPGYGYQQQLVPGMRPGGGPVPSFFMPMVQPQQQRPGGGRRPGGIQHSQQQNPMMQQQMHPRGRMFRYPQGRGGSGDVPPYDMGNNMPLTIGALASNLSNATPEQQRTMLGEVLYPLVEQVEAESAAKVTGMLLEMDQTEVLHLLESPEALKAKVAEAMDVLRSVAAGGATEQLASLNLS
Turning to B6, in test [2], the binding entry was “binds”.
